This is an account of results in the RNAGym collection of RNA variant scans (doi:10.1073/pnas.2313332121).

B1: TPR 5TU (parent)
chain: GGAUCUUCUCGAUCUAACAAAAAAGACAAAUCUGCCACAAAGCUUGAGAGCAUCUUCGGAUGCAGAGGCGGCAGCCUUCGGUGGCGCGAUAGCGCCAACGUUCUCAACUAUGACACGCAAAACGCGUGCUCCGUUGAAUGGAGUUUAUCAUG

Variants at the background level are over-represented here.

The data set covers variants of B1. Nature of the data set: polymerase ribozyme fitness, log enrichment relative to wild type (log ratio); higher = more active; in vitro selection for triplet polymerase activity. In short, it runs like this:
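Mutant libraries were PCR-built and transcribed for each subunit of a heterodimeric triplet polymerase ribozyme and selected for one round in triplicate at −7 °C, frozen, before gel excision of extended constructs and streptavidin-bead capture. Input and output libraries were Illumina-sequenced, keeping genotypes with ≥10 input reads and ≥1 read per output. Fitness is a logarithmic ratio of genotype to wild-type enrichment, in base 2, using inverse-variance-weighted replicate averages.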
GGAUCUUCUCAAUCUAACAAAAAAGACAAAUCUGCCACAAAGCUUGAGAGCAUCUACGGAUGCAGAGGCGGCAGCUUUCGGUGGCGCGAUAGCGCCAACGUUCUCAACUACGACACGCAAAACGCGUGCUCCGUUGAAUGGAGUUUAACAUG: the “polymerase ribozyme fitness (log ratio)” value is no more than -4.2.

With GGAUCUUCUCAAUCUAACAAAAAACACAAAUCUGGCACAAAGCUUGAGAGCAUCUUCGGAUGCAGAGGCGGCAGGCUUUGGUGGCGCGAUAGGGCCAACGUUCUCAACUAUGACACGCAAAACGCGUGCUCCGUUGAAUGGAGUUUAUCAUG, the “polymerase ribozyme fitness (log ratio)” value is no more than -4.2.

On to GGAUCUUCUCAAUCUAACAAAAAAGACAAAUCUGCCACAAAGCUUGAGAGCAUCUUCGGAUGCAGAGGCGGCAGCGCUCGGUGGCGCGAUAGCGCCAACGUUCUCAACUAUGACACGCAAAACGCGUGCUCCGUUGAAUGGAGUUUAUCAUG, for which the “polymerase ribozyme fitness (log ratio)” value is no more than -4.2.

As to GGAUCUUCUCAAUCUAACAAAAAAGACAAAUCUGCCACAAAGCUUGAGAGCAUCUUCUGAUGCAGAGGCGGCAGCCUUCGGUGGCGCGAUAGCGCUAACGUUCUCAACUAUGACACGCAAAACGCGUGCUCCGUUGAAUGGAGUUUAUCAUG, the “polymerase ribozyme fitness (log ratio)” value is -1.58.

For GGAUCUUCUCAAUCUAACAAAAAAGACAAAUCUGCCACAAAGCGUGAGAGCAUCUUCGGAUGCAGAGGCGGCAGCCUUCCGUGGCGCGAUAGAUCCAACGUUCUCAACUAUGACACGCAAAACGCGUGCUCCGUUGAAUGGAGUUUAUCAUG, the “polymerase ribozyme fitness (log ratio)” value was no more than -4.2.

In the case of GGAUCUUCUCAAUCUAACAAAAAAGACAAAUCUGCCACAAAGCUUGAGAGCAUCUUCGGAUGCAGAGGCGGCAGCCUUCGGUGGCGCGAUAGCGCCAACGUUCUCAACUAUGAGACGCAAAACUCGUGCUCCGUUGAAUGGAGUUUAUCAUG, the “polymerase ribozyme fitness (log ratio)” value was -4.03.

GGAUCUUCUCAAUCUAACAAAAAAGACAAAUCUGCCACAAAGCAUGAGAGCAUCUACGGAUGCCGAGGCGGCAGCCUUCGGUGGCGCGAUUGCGCCAACGUUCUUAAGUCUGACACGCAAAACGCGUGCUCCGUGGAAUGGAGUUUAUCAUG: the “polymerase ribozyme fitness (log ratio)” value was no more than -4.2.

In the case of GGAUCUUCUCAAUCUAACAAAAAAGACAAAUCUGCCACAAAGCUUGAGAACAUCUUCGGAUGCACAGGCGGCAGCCAUCGGUGGCGUGAUAGCGCCAACGUUCUCAACUAUGACACGCAAAACGCGUGCUCCGUUGAUUGGAGUUUAUUAGG, the “polymerase ribozyme fitness (log ratio)” value is no more than -4.2.

Regarding GGAUCUUCUCAAUCUAACAAAAAAGACAAAUCUGCCACAAAGCCUGAGAGCAUCUUCGGAUGCAGAGUCGGCAGCCGUCGGUGGCGUGAUAGCGCCAACGUUCUCAACUAUGACACGCAAAACGCGUGCUCCGUUGAAUGGAGUUUAUCAUG, the “polymerase ribozyme fitness (log ratio)” value is no more than -4.2.

Consider GGAUCUUCUCAAUCUAACAAAAAAGACAAAUCUGCCACAAAGCUUGAGAGCAUCUUCGGAAGCAGAGGCGGCAGCCUUCGGUUGCGCGAUAGAGCCAACGUUCUCAACUAUGACACGCAAAACGCGUGCUCCGUUGAAUGGAGGUUAUCAUG, for which the “polymerase ribozyme fitness (log ratio)” value is no more than -4.2.

GGAUCUUCUCAAUCUAACAAAAAAGACAAAUCUGCCACAAAGCUUGAGAGCAUCUUGGGAUGCAGAGGCGGCAGCCUUCGGUGGCCCGAUAGCGCCAACGUUCUCAACUAUGACACGCAAAACGCGUGCUCCGUUGAAUGCAGUUUAUCAUG: the “polymerase ribozyme fitness (log ratio)” value was no more than -4.2.

Regarding GGAUCUUCUCAACCUAACAAAAAAGACAAAUCUGCUACAAAGCUUGAGUGCAUCUUCGGUUGCAGAGGCGGCAGCCUUCGGUGGCGCGAUAGCGCCAACGUUCUCAACUAUGACACGCAAAACGCGUGCUCCGUUGAAUGGAGUUUAUCAUG, the “polymerase ribozyme fitness (log ratio)” value was -4.19.

For GGAUCUUCUCAAUCUAACAAAAAAGACAAAUCUGCCACAAAGCUUGAGAGCAUCUUCGGAUGCAGAGGCGGCAGCCUUCGGUGAUGCAAUAGCGCCAAAGUUCUCAACUAUGACACGCAAAACGCGUGCUGCGUUGAACGGAGUUUAUCAUG, the “polymerase ribozyme fitness (log ratio)” value is no more than -4.2.

Take GGAUCUUCUCAAUCUAACAAAAAAGACAAAUCUGCCACAAAGCUUUAGAGCAUCUUCGGAUGCAGAGGCGGCAGCCUUCGGUGGCGCGAUAACGCCAACGUUCUCAACUAUGACACGUAAAACGCGUGCUCCGUUGAAUGGAGUUUAUCAUG: the “polymerase ribozyme fitness (log ratio)” value was no more than -4.2.

Take GGAUCUUCUCAAUCUAACAAAAAAGACAAAUCUGCCACAAAUCUUGAGAGCAUCUUGGGCUGCAGAGGCGGCAGCCUUCGGUGGCGCGAUAGCGCCAACGUUCUCAACUAUGACACGCAAAACGCGUGCUCCGUCGAAUGGAGUUUAUCAUG: the “polymerase ribozyme fitness (log ratio)” value was no more than -4.2.

For GGAUCUUCUCAAUCUAACAAAAAAGACAAAUCUGCCACAAAGCUUGAGAGCAUCUUCGGAUGUAGAGGCGGCAGCAUUCGGUGGCGCGAUAGCGCCAACGUUGUCAACUAUGACACGCAAAACGCGUGCUCCGUUGAAUGGAGUUGAGCAUG, the “polymerase ribozyme fitness (log ratio)” value was no more than -4.2.

In the case of GGAUCUUCUCAAUCUAACAAAAAAGACAAAUCUGCCACAAAGCUUGAGAGCAUCUUCGGAAGCAGAGGCGGCAGCCUUCGGUGGAGCGAUAGCGCCAACGUUCUCAACUAUGACACGCAAACCGCGUGCUCCGUUGAAUGGAGUUUAUCCUG, the “polymerase ribozyme fitness (log ratio)” value is no more than -4.2.

Take GGAUCUUCUCAAUCUAACAAAAAAGACAAAUCUACCACAAAGCUUGAGAGCAUCUUCGGAUGCAGAGGCGGCAGCCUUCGGUGGCGCGAUAGUGCCGACGUUCUCAACUAUGACACGCAAAACGCGUGCUCCGUUGAAUGGAGUUUAUCAUG: the “polymerase ribozyme fitness (log ratio)” value is no more than -4.2.

On to GGAUCUUCUCAAUCAAACAAAAAAGACAAAUCUGCCACAAAGCUUGAAAGCAUCUUCGGAUGCAGAGGCGGCAGCCUUGGGUGGCGCGAUAGCGCCAACGUUCUCAACUAUGACACGCAAAACGCGUGCUCCGUUGAAUGGAGGUUAUCAUG, for which the “polymerase ribozyme fitness (log ratio)” value was no more than -4.2.
